The list shows a part of the results.
T1: UNK ZnF1-3 (human, UniProt Q9C0B0 31-174)
T1 sequence: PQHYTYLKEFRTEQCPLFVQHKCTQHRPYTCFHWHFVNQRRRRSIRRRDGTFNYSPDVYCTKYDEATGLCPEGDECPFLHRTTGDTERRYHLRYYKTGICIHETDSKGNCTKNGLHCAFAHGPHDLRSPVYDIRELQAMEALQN

B1: chr2:84898283:84898284:+_ENSMUSG00000033955_ENSMUST00000148682|mus_mus|motif|central (ssRNA)
RNA: GGGAGUUCUACAGUCCGACGAUCUUGAGGUGACCCAGGUCUUGGAAACGUCGGUAGGUGCUUCAGAGCAAGCCAGUUUAGCGGGGUCCCCAUUCAUUGCCGGGCUGGAAGUGAGGUUCCUCUCCUCAGGAGUCUUGCUAUGCUCAACAGAGGAUUGAGCAUCA
B2: chr4:39739082:39739083:+_ENSG00000078140_ENST00000261427|perfect_dup|motif|central (ssRNA)
RNA: GGGAGUUCUACAGUCCGACGAUCUAUUUUUAUCUCUAGUUGGUAUCUUCCUCCUUCAUAUGGUGUGUCUGGAGGUCCUGCGGUUUCUCCUCUUAAUUCUGUAAAAUUCUCAUCUACAAGAUCUACUUUAAUUUGAUUUUUGCUCAACAGAGGAUUGAGCAUCA
B3: chrX:129364583:129364584:-_ENSG00000056277_ENST00000370978|hu_hu|motif|central (ssRNA)
RNA: GGGAGUUCUACAGUCCGACGAUCAGUCUUUGGCUCUUUCUCAGUGACUCCUUCAUGCCUUCCAUAAUAAAACUCAUUGACGGACAUGAUCAACUUUCCUGUCUCUGAAUCAGUCUUGUCUUCAUCACAUGGACGUUCUGAUUUCAACAGAGGAUUGAGCAUCA
B4: chr14:89307221:89307222:+_ENSG00000165533_ENST00000346301|hu_mus|hu_hu_hu_mus_False|68_108 (ssRNA)
RNA: GGGAGUUCUACAGUCCGACGAUCUCCUGUCUGAUUAGUGCCAGGGAGCUUCAAAGAUGUGCCAGGGCGUGGAACUUGAGCAAUAGCAUUUUCAUCCAGGAUCAUUUCAGCAAUUCCUUCCUGGUCCACAUCAAUUUCAUCUAUCAACAGAGGAUUGAGCAUCA
B5: chr11:119170673:119170674:+_ENSG00000110395_ENST00000264033|hu_mus|FALSE|FALSE (ssRNA)
RNA: GGGAGUUCUACAGUCCGACGAUCACUGGAGACUGCAGGACUACAAAAACACUCUUAAGACCAAUACAACAAUGAAACACAUCAGCUGCUCCAUUUUCAUUCCACUGCUUUGAAAUCUUGGAACCAUAUGUGUCGAUCCCCACACAACAGAGGAUUGAGCAUCA
B6: 104554422_104554542_102_5pUTR_ENSMUSG00000032621_ENSMUST00000074616|mouse|control|control (ssRNA)
RNA: GGGAGUUCUACAGUCCGACGAUCACGCUUUCCCAGGACGCUGUUUUCGCGGUGAUCGAAAGUUGUGUUACACAUGACAACCGUUCGUGUUGGCUGCGUCACUAAUAGCACACAGAACAUCAGAUACAGAAAAGAAGAACAUUUCAACAGAGGAUUGAGCAUCA
B7: 48623262_48626664_2083_CDS_ENSMUSG00000031558_ENSMUST00000170109|mouse|control|control (ssRNA)
RNA: GGGAGUUCUACAGUCCGACGAUCAUUGUCAUAUAAAGAGAGCAGACGCACAGAGCCGAGUCCUAUGAAACUGUCGUUCCCAACACAGCUUAUUCGAUUACUUCUCAGCAUCAAUGUUUUGAGGCUCUCCAGUCCUUUGAACAUCAACAGAGGAUUGAGCAUCA
B8: chr10:70508923:70508924:+_ENSG00000060339_ENST00000535016|hu_hu|FALSE|FALSE (ssRNA)
RNA: GGGAGUUCUACAGUCCGACGAUCUCUUCCUGAAAAUCGGGAUGGGGGAUCUAAUCGUCGUGCCGGUUGUGGCUGUGAAACUAUACGAACAGGAGGCUGCAAUAAACCAGCUUUUUGCUGAGGCUGCUGUAAUAAGGGCUGUGGCAACAGAGGAUUGAGCAUCA
B9: chr6:40197388:40197389:+_ENSMUSG00000057716_ENSMUST00000061740|mus_mus|mus_mus_mus_hu_False|58_88 (ssRNA)
RNA: GGGAGUUCUACAGUCCGACGAUCGAGACACUGGGGUGGAUUUAUUCUCAGUUUGGGUGGGUGCUAGCCACUAAGACAGCUAUUUUGGGAUUCAUGGCCUUGAAUAUCAAGAGGGAAAGGAAGAGGAUGGAAAGAGUCAAGAGUCAACAGAGGAUUGAGCAUCA
B10: chr7:151048522:151048523:+_ENSG00000013374_ENST00000566856|hu_mus|hu_hu_hu_mus_True|1_68 (ssRNA)
RNA: GGGAGUUCUACAGUCCGACGAUCCUGUUUCUUAUUUAUUACGAUCUUGAUGUAAUUUUCUUGAAAUCCAAAGGUUUCAGCUAUUUGACACCUCAGGUCUCUACCAGUGACAUGCAAGCGGGUCUCCAACAAGCUUUUCCUAUCCAACAGAGGAUUGAGCAUCA
B11: chr6:149979360:149979361:-_ENSG00000131023_ENST00000543571|hu_mus|FALSE|FALSE (ssRNA)
RNA: GGGAGUUCUACAGUCCGACGAUCAGGGAAUGAUUGGGAAAAUACAAAUAGAUUCAUUAAAAACAGACUGAUUAUUUGUUCUAGUACAUUCAGAAAUAUCCAAAAACAGUUGUUAUAUUGCAAAGCUGUAAUUUUUCCUAGCAACAACAGAGGAUUGAGCAUCA
B12: chr16:94664741:94664742:+_ENSMUSG00000040785_ENSMUST00000117648|mus_mus|motif|central (ssRNA)
RNA: GGGAGUUCUACAGUCCGACGAUCUGGCAUGGAUCUUUGCAUUGGAUACUCAGAAGAAAUGUUGGCCAAAGGUGUGUAAAUGCGGGUGAACUGCGACAGGCUAGGUACCAUGUUAAUGUACGCUGGUCGCUGGGUGAUGCCAAACAACAGAGGAUUGAGCAUCA
B13: chr3:33650081:33650082:-_ENSG00000163539_ENST00000461133|hu_mus|FALSE|FALSE (ssRNA)
RNA: GGGAGUUCUACAGUCCGACGAUCCAAAACAGCUGCAUGUCUUUCCAGUGAAUGAGUCUGCCAUUCUUGCAGCAGCAAAUCUAAAAAUUCAAAUGAACGUCUCCUUACAGGAACUGACUUUGAUGUGCAGUUGCUUGUUAUUAACAACAGAGGAUUGAGCAUCA
B14: chr22:26877738:26877739:-_ENSG00000100099_ENST00000336873|hu_hu|FALSE|FALSE (ssRNA)
RNA: GGGAGUUCUACAGUCCGACGAUCUCCACCACGAGGCUGACUUUGCCUCUGUGGAGGUAGAGGUGGCCAUCUACUGUGCAGUCAUCCUCAUUCUCUUCAUUUAGGUUUUCUUUUCCGGUAUCACUUCUUUCUCCCUAGCUGUGACAACAGAGGAUUGAGCAUCA

These binders were tested against T1, UNK ZnF1-3 (assay: nsRBNS (natural sequence RNA bind-n-seq); RBNS binding buffer (assumed for nsRBNS): 25 mM Tris pH 7.5, 150 mM KCl, 3 mM MgCl2, 0.01% Triton X-100, 500 ug/ml BSA, 20 U/ml SUPERase-In, 4 C; UNK is unkempt and MSI1 is Musashi-1; names of the RNAs are library labels; protein concentration not given here; high values mean tight binding).

With B1 as the binder, how does the binding signal read?
Its binding signal is 0.934 enrichment R.

How did the binding signal turn out when B2 was run?
Its binding signal is 0.313 enrichment R.

How did the binding signal turn out when B3 was run?
Its binding signal is 0.56 enrichment R.

B4 was tested. Which binding signal did it give?
Its binding signal is 0.863 enrichment R.

For B5, which binding signal is on record?
Its binding signal is 1.2 enrichment R.

How did the binding signal turn out when B6 was run?
Its binding signal is 0.919 enrichment R.

Which binding signal does the source give for B7 here?
The binding signal was 1.05 enrichment R.

How did the binding signal turn out when B8 was run?
The binding signal was 1.5 enrichment R.

For B9, which binding signal is on record?
The binding signal was 2.08 enrichment R.

How did the binding signal turn out when B10 was run?
The binding signal was 0.699 enrichment R.

For B11, which binding signal is on record?
Its binding signal is 0.703 enrichment R.

B12 was tested. Which binding signal did it give?
Its binding signal is 1.14 enrichment R.

For B13, which binding signal is on record?
Its binding signal is 0.734 enrichment R.

With B14 as the binder, how does the binding signal read?
The binding signal was 0.622 enrichment R.

Reference: PMC12136788
